Results reported in PubChem BioAssay AID1865 (National Center for Advancing Translational Sciences (NCATS), 2009).
Screen size: about 280,000 compounds; about 540 (0.19%) were called active. Inconclusive means that the source gave no clear call. Such entries were picked first, then a sample of the others. The call rests on the fitted dose curve; in most records, active means well fitted activation curve with a large enough effect; inconclusive means small, poorly fitted or top-dose-only effect; inactive means flat fitted curve, though single readings scatter. A potency beside an inconclusive call is a rough fit, not a confirmed value.

Assay: Quantitative High-Throughput Screen for Regulators of Epigenetic Control; further: nearly all actives have a fitted effect of over 60% in size; on GFP activation: % of control where 0% means no effect
Conditions: murine LDR cells, GFP reporter derepression, 30 h; GFP activation: at 53.9 µM (top of the series)
Summary of the method: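 Murine LDR cells bearing a silenced CMV-driven GFP reporter were exposed to compound for 30 h at 37 C. After PBS washes, GFP-positive cells (20-120 um objects) counted by laser-scanning microplate cytometry.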
Potency means the concentration at half of the fitted maximal effect; tags describe the fitted curve by direction and shape.

Row | SMILES | Potency | GFP activation
1 | C=CC1=C(C)C2=NC1=CC1=NC(=CC3=NC(=CC4=NC(=C2)C(C)=C4CCC(=O)O)C(CCC(=O)O)=C3C)C(C=C)=C1C.[Zn] | inactive | –
2 | COc1ccc(CC(=O)Nc2ccc(-c3nnc(-c4ccccc4)o3)cc2)cc1 | inconclusive: 17.8 µM [activator, single point] | –
3 | O=C(CSc1ncc2c(n1)-c1ccc(Cl)cc1N(Cc1ccccc1)S2(=O)=O)Nc1ccc(F)c(F)c1 | inconclusive: 0.1 µM [activator, partial curve, poor fit] | –
4 | Cc1ccc(C(=O)C2OC(=O)C(C)(C)C(=O)C2(C)C)cc1 (stereo not drawn) | inactive | –
5 | CCc1ccc(NC(=O)c2sc3ncnc(N(C)C4CCCCC4)c3c2C)cc1 | inactive | –
6 | Cc1cccc(CS(=O)(=O)c2nnc([C@H](Cc3ccccc3)NC(=O)OC(C)(C)C)o2)c1 | inconclusive: 5.01 µM [activator, single point] | –
7 | COC(=O)c1cc(NC(=O)c2cc3c(-c4ccccc4F)nn(C)c3s2)cc(C(=O)OC)c1 | inconclusive: 3.16 µM [activator, single point] | –
8 | CSc1c(C#N)c(N)nc2sc(C(=O)c3ccccc3)c(N)c12 | inconclusive: 25.1 µM [activator, single point] | –
9 | COc1cc(/C=C/C(=O)CC(=O)/C=C/c2ccc(O)c(OC)c2)ccc1O | inconclusive: 3.98 µM [activator, single point] | –
10 | O=c1cc(COc2ccc(Cl)cc2Cl)nc2scc(-c3ccccc3)n12 | inconclusive: 35.5 µM [activator, single point] | –
11 | NC(=O)C1(N2CCCCC2)CCN(C2CC(=O)N(Cc3ccc(N4CCCC4=O)cc3)C2=O)CC1 (stereo not drawn) | – | inconclusive: -0.0701% [phenotype inactive]
12 | O=C1C(SCCO)=C(SCCO)C(=O)c2ccccc21 | inconclusive: 0.282 µM [activator, single point] | –
13 | CCOC(=O)c1cccc(NC(=O)CCc2nc3cccnc3n2-c2ccccc2)c1 | inconclusive: 28.2 µM [activator, single point] | –
14 | COc1ccc2c(c1)CC/C(=C\C=C\c1ccccc1OC)C2=O | inactive | –
15 | O=C(NCCCN1CCOCC1)c1ccco1 | inactive | –
16 | Cc1ccc(NC(=O)Cn2nnc3sc(-c4ccccc4)cc3c2=O)cc1Cl | inconclusive: 35.5 µM [activator, single point] | –
17 | Cc1ccc(NC(=O)CN2C(=O)N/C(=C/c3ccc(C)o3)C2=O)cc1 | inconclusive: 28.2 µM [activator, single point] | –
18 | Cc1ccc(OCC(=O)N2N=C(C(F)(F)F)CC2(O)C(C)(C)C)cc1C (stereo not drawn) | inactive | –
